{"sequences": {"note": "Protein sequences, listed by entry. Tags and fused reporters are not part of them. Lines headed by an entry give the natural chain unless they say otherwise; changes in a name come on top. Chains listed by the source or under a name are the forms on record and can include a tag or linker. Residues count along the entry.", "UniProt O60238, residues 1-182": "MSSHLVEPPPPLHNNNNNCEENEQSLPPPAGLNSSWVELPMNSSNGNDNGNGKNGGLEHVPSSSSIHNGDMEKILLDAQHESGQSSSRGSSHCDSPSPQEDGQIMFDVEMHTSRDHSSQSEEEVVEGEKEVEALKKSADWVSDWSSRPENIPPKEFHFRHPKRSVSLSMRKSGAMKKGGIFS", "UniProt Q9BXK5, residues 1-465": "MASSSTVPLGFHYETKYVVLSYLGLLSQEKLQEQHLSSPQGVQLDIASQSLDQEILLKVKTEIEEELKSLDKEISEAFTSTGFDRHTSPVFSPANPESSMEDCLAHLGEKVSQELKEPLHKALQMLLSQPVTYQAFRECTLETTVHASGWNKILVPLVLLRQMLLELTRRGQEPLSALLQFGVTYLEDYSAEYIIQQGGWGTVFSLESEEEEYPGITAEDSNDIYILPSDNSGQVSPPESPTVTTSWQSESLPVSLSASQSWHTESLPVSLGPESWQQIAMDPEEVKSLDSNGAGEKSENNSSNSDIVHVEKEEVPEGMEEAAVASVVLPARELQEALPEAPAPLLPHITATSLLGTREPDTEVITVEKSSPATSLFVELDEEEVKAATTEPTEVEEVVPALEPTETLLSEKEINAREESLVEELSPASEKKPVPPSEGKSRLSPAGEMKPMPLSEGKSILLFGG", "UniProt Q6ZNE5": "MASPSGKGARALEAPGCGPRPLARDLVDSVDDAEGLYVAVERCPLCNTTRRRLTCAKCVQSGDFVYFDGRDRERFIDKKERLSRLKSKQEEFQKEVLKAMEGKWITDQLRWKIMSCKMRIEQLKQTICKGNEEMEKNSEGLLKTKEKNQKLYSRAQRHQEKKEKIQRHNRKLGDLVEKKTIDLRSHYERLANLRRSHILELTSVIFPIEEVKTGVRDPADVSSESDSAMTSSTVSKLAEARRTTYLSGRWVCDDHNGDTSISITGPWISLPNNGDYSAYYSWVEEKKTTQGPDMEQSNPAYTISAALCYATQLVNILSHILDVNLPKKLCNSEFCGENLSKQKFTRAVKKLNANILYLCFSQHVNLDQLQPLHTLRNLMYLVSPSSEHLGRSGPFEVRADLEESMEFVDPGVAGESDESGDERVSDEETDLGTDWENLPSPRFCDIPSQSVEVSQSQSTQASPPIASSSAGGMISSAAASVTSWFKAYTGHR", "UniProt Q8TDY2": "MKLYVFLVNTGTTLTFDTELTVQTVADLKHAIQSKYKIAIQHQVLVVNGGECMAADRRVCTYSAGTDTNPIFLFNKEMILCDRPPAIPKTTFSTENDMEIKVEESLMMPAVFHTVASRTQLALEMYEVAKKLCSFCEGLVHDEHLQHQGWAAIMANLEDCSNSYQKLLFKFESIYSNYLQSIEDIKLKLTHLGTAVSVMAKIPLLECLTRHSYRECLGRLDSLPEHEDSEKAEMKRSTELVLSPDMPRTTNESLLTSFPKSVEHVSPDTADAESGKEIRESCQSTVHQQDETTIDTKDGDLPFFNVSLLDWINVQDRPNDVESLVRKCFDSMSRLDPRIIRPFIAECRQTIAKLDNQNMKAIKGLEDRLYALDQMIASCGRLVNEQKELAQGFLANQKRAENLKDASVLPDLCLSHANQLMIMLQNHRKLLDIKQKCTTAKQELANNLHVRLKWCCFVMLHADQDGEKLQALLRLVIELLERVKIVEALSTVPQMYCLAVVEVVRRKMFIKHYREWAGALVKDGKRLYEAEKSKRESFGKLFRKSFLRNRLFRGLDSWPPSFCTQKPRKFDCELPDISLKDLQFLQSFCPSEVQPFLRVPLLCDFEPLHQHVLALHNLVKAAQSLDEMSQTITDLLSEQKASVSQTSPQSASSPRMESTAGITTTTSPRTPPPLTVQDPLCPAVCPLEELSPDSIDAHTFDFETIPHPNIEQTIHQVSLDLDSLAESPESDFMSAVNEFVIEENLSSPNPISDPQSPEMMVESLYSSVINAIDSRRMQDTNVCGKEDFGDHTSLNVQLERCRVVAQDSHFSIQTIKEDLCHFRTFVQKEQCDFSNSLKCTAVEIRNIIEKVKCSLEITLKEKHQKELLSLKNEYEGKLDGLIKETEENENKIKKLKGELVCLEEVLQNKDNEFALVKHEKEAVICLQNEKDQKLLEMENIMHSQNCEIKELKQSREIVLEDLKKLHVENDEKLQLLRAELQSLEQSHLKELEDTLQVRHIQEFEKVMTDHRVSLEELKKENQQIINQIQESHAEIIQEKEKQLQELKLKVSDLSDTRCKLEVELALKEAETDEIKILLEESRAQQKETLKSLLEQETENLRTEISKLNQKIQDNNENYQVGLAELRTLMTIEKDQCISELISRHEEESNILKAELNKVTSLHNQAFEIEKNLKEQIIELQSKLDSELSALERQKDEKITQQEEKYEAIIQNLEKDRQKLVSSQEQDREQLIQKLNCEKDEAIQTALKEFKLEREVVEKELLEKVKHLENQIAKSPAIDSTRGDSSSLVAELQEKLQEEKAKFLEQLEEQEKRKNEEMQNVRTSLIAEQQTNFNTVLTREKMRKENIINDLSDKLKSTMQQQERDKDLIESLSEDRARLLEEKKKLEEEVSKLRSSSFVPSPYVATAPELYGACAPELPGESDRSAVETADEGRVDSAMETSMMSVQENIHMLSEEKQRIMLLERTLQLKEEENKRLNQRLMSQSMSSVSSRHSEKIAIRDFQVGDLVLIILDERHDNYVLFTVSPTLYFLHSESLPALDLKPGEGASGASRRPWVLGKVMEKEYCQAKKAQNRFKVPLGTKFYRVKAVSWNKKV", "GFP-FIP200 C-terminal region (CTR) (residues 1429–1591) (Q8TDY2-2, form named)": "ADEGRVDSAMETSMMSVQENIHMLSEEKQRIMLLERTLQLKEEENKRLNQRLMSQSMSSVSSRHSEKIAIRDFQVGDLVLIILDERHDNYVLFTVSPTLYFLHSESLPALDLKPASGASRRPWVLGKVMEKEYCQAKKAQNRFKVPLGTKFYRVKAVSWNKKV"}, "source": "paper doi:10.1101/2024.08.28.609967", "about": "(bioRxiv, 2024)", "molecules": {"B1": {"name": "WIPI2 (endogenous, HeLa) (protein, UniProt Q9Y4P8 1-454)", "chain": "MNLASQSGEAGAGQLLFANFNQDNTEVKGASRAAGLGRRAVVWSLAVGSKSGYKFFSLSSVDKLEQIYECTDTEDVCIVERLFSSSLVAIVSLKAPRKLKVCHFKKGTEICNYSYSNTILAVKLNRQRLIVCLEESLYIHNIRDMKVLHTIRETPPNPAGLCALSINNDNCYLAYPGSATIGEVQVFDTINLRAANMIPAHDSPLAALAFDASGTKLATASEKGTVIRVFSIPEGQKLFEFRRGVKRCVSICSLAFSMDGMFLSASSNTETVHIFKLETVKEKPPEEPTTWTGYFGKVLMASTSYLPSQVTEMFNQGRAFATVRLPFCGHKNICSLATIQKIPRLLVGAADGYLYMYNLDPQEGGECALMKQHRLDGSLETTNEILDSASHDCPLVTQTYGAAAGKGTYVPSSPTRLAYTDDLGAVGGACLEDEASALRLDEDSEHPPMILRTD"}, "B2": {"name": "mCherry-tagged WIPI1 (protein, UniProt Q5MNZ9 1-446)", "chain": "MEAEAADAPPGGVESALSCFSFNQDCTSLATGTKAGYKLFSLSSVEQLDQVHGSNEIPDVYIVERLFSSSLVVVVSHTKPRQMNVYHFKKGTEICNYSYSSNILSIRLNRQRLLVCLEESIYIHNIKDMKLLKTLLDIPANPTGLCALSINHSNSYLAYPGSLTSGEIVLYDGNSLKTVCTIAAHEGTLAAITFNASGSKLASASEKGTVIRVFSVPDGQKLYEFRRGMKRYVTISSLVFSMDSQFLCASSNTETVHIFKLEQVTNSRPEEPSTWSGYMGKMFMAATNYLPTQVSDMMHQDRAFATARLNFSGQRNICTLSTIQKLPRLLVASSSGHLYMYNLDPQDGGECVLIKTHSLLGSGTTEENKENDLRPSLPQSYAATVARPSASSASTVPGYSEDGGALRGEVIPEHEFATGPVCLDDENEFPPIILCRGNQKGKTKQS"}, "B3": {"name": "TBK1 (enzyme, UniProt Q9UHD2 1-729)", "chain": "MQSTSNHLWLLSDILGQGATANVFRGRHKKTGDLFAIKVFNNISFLRPVDVQMREFEVLKKLNHKNIVKLFAIEEETTTRHKVLIMEFCPCGSLYTVLEEPSNAYGLPESEFLIVLRDVVGGMNHLRENGIVHRDIKPGNIMRVIGEDGQSVYKLTDFGAARELEDDEQFVSLYGTEEYLHPDMYERAVLRKDHQKKYGATVDLWSIGVTFYHAATGSLPFRPFEGPRRNKEVMYKIITGKPSGAISGVQKAENGPIDWSGDMPVSCSLSRGLQVLLTPVLANILEADQEKCWGFDQFFAETSDILHRMVIHVFSLQQMTAHKIYIHSYNTATIFHELVYKQTKIISSNQELIYEGRRLVLEPGRLAQHFPKTTEENPIFVVSREPLNTIGLIYEKISLPKVHPRYDLDGDASMAKAITGVVCYACRIASTLLLYQELMRKGIRWLIELIKDDYNETVHKKTEVVITLDFCIRNIEKTVKVYEKLMKINLEAAELGEISDIHTKLLRLSSSQGTIETSLQDIDSRLSPGGSLADAWAHQEGTHPKDRNVEKLQVLLNCMTEIYYQFKKDKAERRLAYNEEQIHKFDKQKLYYHATKAMTHFTDECVKKYEAFLNKSEEWIRKMLHLRKQLLSLTNQCFDIEEEVSKYQEYTNELQETLPQKMFTASSGIKHTMTPIYPSSNTLVEMTLGMKKLKEEMEGVVKELAENNHILERFGSLTMDGGLRNVDCL"}}, "key": {"[1]": {"biological_target": "NIX(1–182aa)-GST (human) (UniProt O60238)", "assay": "in vitro binding assay; purified TBK1, PI3KC3-C1 complex or ATG9A-vesicles tested with BNIP3/NIX (Fig. S3); format not told in the text shown; both purified"}, "[2]": {"biological_target": "NIX(1–182aa)-GST (human) (UniProt O60238)", "assay": "microscopy-based bead assay; as a2 (GFP-FIP200 CTR prey) with Lambda Protein Phosphatase and 1 mM MnCl2; both purified"}, "[3]": {"biological_target": "NIX(1–182aa)-GST (human) (UniProt O60238)", "assay": "microscopy-based bead assay; glutathione beads coated with GST-tagged cargo receptors (5 uM), GFP-FIP200 CTR (1429-1591) as prey, 30 min; 25 mM Tris-HCl pH 7.4, 150 mM NaCl, 1 mM DTT; confocal imaging; both purified"}, "[4]": {"biological_target": "T1, FUNDC1 Y18A/L21A (ΔLIR)-GST (human) (UniProt Q8IVP5)", "T1 sequence": "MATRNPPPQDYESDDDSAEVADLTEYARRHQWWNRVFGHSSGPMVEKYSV", "assay": "microscopy-based bead assay; glutathione beads coated with GST-tagged cargo receptors (5 uM), GFP-FIP200 CTR (1429-1591) as prey, 30 min; 25 mM Tris-HCl pH 7.4, 150 mM NaCl, 1 mM DTT; confocal imaging; both purified"}, "[5]": {"biological_target": "NIX(1–182aa)-GST (human) (UniProt O60238)", "assay": "microscopy-based bead assay; as a2 (GFP-FIP200 CTR prey) with kinases TBK1, MBP-ULK1, CK2 or Src (Y530F) and 10 mM MgCl2, 100 uM ATP; both purified"}, "[6]": {"biological_target": "T2, FUNDC1(1–50aa)-GST (human) (UniProt Q8IVP5)", "T2 sequence": "T1 sequence with A18Y, A21L", "assay": "microscopy-based bead assay; as a3 (full-length FIP200-GFP prey, 4 h) with Lambda Protein Phosphatase and 1 mM MnCl2; both purified"}, "[7]": {"biological_target": "NIX(1–182aa)-GST (human) (UniProt O60238)", "assay": "microscopy-based bead assay; as a3 (full-length FIP200-GFP prey, 4 h) with Lambda Protein Phosphatase and 1 mM MnCl2; both purified"}, "[8]": {"biological_target": "T3, BCL2L13(1–465aa)-GST (human, UniProt Q9BXK5 1-465)", "T3 construct": "BCL2L13, cytosol-exposed domain, residues 1-465; also called BCL2L13-GST; source: E. coli Rosetta pLysS, purified (glutathione beads, SEC); not shown: GST, C-terminal, kept", "assay": "microscopy-based bead assay; as a3 (full-length FIP200-GFP prey, 4 h) with Lambda Protein Phosphatase and 1 mM MnCl2; both purified"}, "[9]": {"biological_target": "NIX(1–182aa)-GST (human) (UniProt O60238)", "assay": "microscopy-based bead assay; glutathione beads coated with GST-tagged cargo receptors (5 uM), full-length FIP200-GFP as prey, co-incubated 4 h; 25 mM Tris-HCl pH 7.4, 150 mM NaCl, 1 mM DTT; both purified"}, "[10]": {"biological_target": "T2, FUNDC1(1–50aa)-GST (human)", "assay": "microscopy-based bead assay; as a3 (full-length FIP200-GFP prey, 4 h) with kinases TBK1, MBP-ULK1, CK2 or Src (Y530F) and 10 mM MgCl2, 100 uM ATP; both purified"}, "[11]": {"biological_target": "NIX(1–182aa)-GST (human) (UniProt O60238)", "assay": "microscopy-based bead assay; as a3 (full-length FIP200-GFP prey, 4 h) with kinases TBK1, MBP-ULK1, CK2 or Src (Y530F) and 10 mM MgCl2, 100 uM ATP; both purified"}, "[12]": {"biological_target": "T3, BCL2L13(1–465aa)-GST", "assay": "microscopy-based bead assay; as a3 (full-length FIP200-GFP prey, 4 h) with kinases TBK1, MBP-ULK1, CK2 or Src (Y530F) and 10 mM MgCl2, 100 uM ATP; both purified"}, "[13]": {"biological_target": "NIX(1–182aa)-GST (human) (UniProt O60238)", "assay": "pull-down; beads coated with GST, NIX-GST or BNIP3-GST, incubated overnight with HeLa cell lysate; SDS-PAGE and western blot for WIPI proteins; only the target purified"}, "[14]": {"biological_target": "NIX(1–182aa)-GST (human) (UniProt O60238)", "assay": "microscopy-based bead assay; glutathione beads coated with GST-tagged cargo receptors (5 uM), mCherry-tagged WIPI proteins as prey, co-incubated 2 h; 25 mM Tris-HCl pH 7.4, 150 mM NaCl, 1 mM DTT; confocal imaging; both purified"}}, "note": "Changes are numbered by the printed parent chain. Results are given in words; binding and its absence hold for the method and conditions named. For part of these data: Binding seen in cells or lysates may run through a third protein. Some entries that bind do so weakly or less than the wild type. For part of these data: Tags and fused reporters may be left off the sequences shown.", "data": [{"molecule": "mCherry-tagged PI3KC3-C1 complex (from UniProt Q6ZNE5 1-492; Q8NEB9 1-887; Q99570 1-1358; Q14457 1-450)", "values": [{"measurement": "binding", "setting": "[1]", "value": "no binding"}]}, {"molecule": "GFP-FIP200 C-terminal region (CTR) (residues 1429–1591) (from UniProt Q8TDY2-2 1429-1591) (domain or fragment)", "values": [{"measurement": "binding", "setting": "[2]", "value": "no binding"}, {"measurement": "binding", "setting": "[3]", "value": "no binding"}, {"measurement": "binding", "setting": "[4]", "value": "no binding"}, {"measurement": "binding", "setting": "[5]", "value": "no binding"}]}, {"molecule": "FIP200-GFP (full-length FIP200) (from UniProt Q8TDY2 1-1594)", "values": [{"measurement": "binding", "setting": "[6]", "value": "binds"}, {"measurement": "binding", "setting": "[7]", "value": "no binding"}, {"measurement": "binding", "setting": "[8]", "value": "binds"}, {"measurement": "binding", "setting": "[9]", "value": "no binding"}, {"measurement": "binding", "setting": "[10]", "value": "binds"}, {"measurement": "binding", "setting": "[11]", "value": "no binding"}, {"measurement": "binding", "setting": "[12]", "value": "binds"}]}, {"molecule": "B1", "values": [{"measurement": "binding", "setting": "[13]", "value": "binds"}]}, {"molecule": "B2", "values": [{"measurement": "binding", "setting": "[14]", "value": "binds"}]}, {"molecule": "B3", "values": [{"measurement": "binding", "setting": "[1]", "value": "no binding"}]}]}
